Our source for the MIC values is patent publication US4251524A (priority 1976, dated 1981).

≈ marks a conversion by molar mass, not a printed value. Where only a bound is given, the exact number is not on record here.

Holding throughout (experiment): microbe, parasite or virus in culture
The test system of assay [1] is E. coli T 7. To be noted: Escherichia coli, T7, 24 h, read-out: minimum inhibitory concentration (MIC). The protocol:
(§1) In addition, the compound 7-methoxy-7-[D-α-[(2-oxo-3-furfurylideneamino-imidazolidin-1-yl)-carbonylamino]-phenylacetamido]-3-acetoxymethyl-ceph-3-em-4-carboxylic acid was compared with the commercial product Cefazolin in the agar dilution test using OXOID DST agar as the growth medium. In this comparison, the substances were diluted in liquid agar in two steps; after the agar had solidified, the bacteria were applied to the agar surface, using a multiple inoculation apparatus and the plates were incubated at 37° C. for 24 hours. After 24 hours, the concentration at which no colony formation took place was read as the minimum inhibitory concentration (MIC).

For assay [2], the system named is Proteus vulgaris 1017. The settings on record: Proteus vulgaris, 1017, 24 h, read-out: minimum inhibitory concentration (MIC). How it is done: as §1
Assay [3] has as its system Klebsiella pneumoniae 1852. The settings on record: Klebsiella pneumoniae, 1852, 24 h, read-out: minimum inhibitory concentration (MIC). How it is done:
as §1

The test system of assay [4] is E. coli F 14. To be noted: Escherichia coli, F14, 24 h, read-out: minimum inhibitory concentration (MIC). The protocol: as §1
The test system of assay [5] is Klebsiella pneumoniae 57 US. To be noted: 24 h, read-out: minimum inhibitory concentration (MIC). The protocol: as §1
For assay [6], the system named is E. coli A 261. The settings on record: Escherichia coli, A261, 24 h, read-out: minimum inhibitory concentration (MIC). How it is done: as §1

For the molecule `Cc1nnc(SCC2=C(C(=O)O)N3C(=O)[C@@H](NC(=O)Cn4cnnn4)[C@H]3SC2)s1` [Cefazolin, reference compound], the MIC was 16 µg/mL (≈ 35.2 µM) in assay [1]; over 256 µg/mL in assay [2]; 16 µg/mL (≈ 35.2 µM) in assay [3]; 16 µg/mL (≈ 35.2 µM) in assay [4]; 4 µg/mL (≈ 8.8 µM) in assay [5]; 4 µg/mL (≈ 8.8 µM) in assay [6].

Regarding `COC1(NC(=O)[C@H](NC(=O)N2CCN(N=Cc3ccco3)C2=O)c2ccccc2)C(=O)N2C(C(=O)O)=C(COC(C)=O)CS[C@@H]21` (stereo partly drawn) [Example 36.5, 7-methoxy-7-[D-α-[(2-oxo-3-furfurylideneamino-imidazolidin-1-yl)-carbonylamino]-phenylacetamido]-3-acetoxymethyl-ceph-3-em-4-carboxylic acid], the MIC in assay [1] was at most 0.25 µg/mL; in assay [2], 16 µg/mL (≈ 25 µM); in assay [3], 1 µg/mL (≈ 1.56 µM); in assay [4] it was 4 µg/mL (≈ 6.24 µM); in assay [5], 1 µg/mL (≈ 1.56 µM); in assay [6], at most 0.25 µg/mL.
